Assay results from the supplement of paper PMC4967469.
The IC50 comes from the fitted curve, where viability falls to half of the control; a fit beyond the top or the lowest dose is shown as a bound at that dose. AUC, from the same fit, is the share of area under the viability curve across the 256-fold dose range: 1 means no effect, lower means more sensitive. For part of these data: The top dose, if marked as inferred, comes from the curve model; the source does not state it.

Tests used:
Test in all cases: Viability of human cancer cell lines after 72 h of drug (GDSC screen)
[1] = compound: Cc1ccc(C(=O)Nc2cccc(C(F)(F)F)c2)cc1Nc1nc(-c2cccnc2)nc2c1cnn2C [NVP-BHG712]; settings: top dose 10.24 µM; top dose inferred
Procedure: (§1)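 Human cancer cell lines in 384-well plates, medium with 10% serum, drug for 72 h over a 256-fold dose range (nine 2-fold or five 4-fold steps up to the top dose). Adherent lines were fixed and stained with the nucleic acid dye Syto60, suspension lines read with resazurin; signal relative to control wells, capped at 0 and 100%. One two-parameter sigmoid per drug and line, fitted in a mixed model over all curves with the slope shared within a line.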

[2] = compound: CO[C@@H]1[C@H](N(C)C(=O)c2ccccc2)C[C@H]2O[C@]1(C)n1c3ccccc3c3c4c(c5c6ccccc6n2c5c31)C(=O)NC4 [Midostaurin]; settings: top dose 0.512 µM; top dose inferred
Procedure: as §1

[3] = compound: CO[C@@]12[C@H](COC(N)=O)C3=C(C(=O)C(C)=C(N)C3=O)N1C[C@@H]1N[C@@H]12 [Mitomycin C]; settings: top dose 16 µM
Procedure: as §1

[4] = compound: COc1cc(Nc2c(C#N)cnc3cc(OCCCN4CCN(C)CC4)c(OC)cc23)c(Cl)cc1Cl [Bosutinib]; settings: top dose 2 µM
Procedure: as §1

[5] = compound: O=C(O)CNC(=O)c1c(O)c2ccccc2n(Cc2ccccc2)c1=O [IOX2]; settings: top dose 0.1 µM; top dose inferred
Procedure: as §1

Row | Cell Line | AUC [1] | IC50 [1] [µM] | AUC [2] | IC50 [2] [µM] | AUC [3] | IC50 [3] [µM] | AUC [4] | IC50 [4] [µM] | AUC [5] | IC50 [5] [µM]
1 | KYM-1 (rhabdomyosarcoma, adherent) | 0.991 | > 10.2 | 0.961 | > 0.512 | 0.087 | < 0.0625 | 0.99 | > 2 | 0.988 | > 0.1
2 | H3118 (head and neck, adherent) | 0.822 | 6.7 | 0.853 | 0.462 | 0.271 | 0.208 | 0.535 | 0.157 | 0.981 | > 0.1
3 | NCI-H28 (mesothelioma, adherent) | 0.932 | > 10.2 | 0.796 | 0.332 | 0.619 | 2.37 | 0.927 | > 2 | 0.965 | > 0.1
4 | LNZTA3WT4 (glioma, adherent) | 0.973 | > 10.2 | 0.935 | > 0.512 | 0.551 | 1.37 | 0.943 | > 2 | 0.987 | > 0.1
5 | KYSE-70 (oesophagus, adherent) | 0.987 | > 10.2 | 0.901 | > 0.512 | 0.309 | 0.276 | 0.949 | > 2 | 0.961 | > 0.1
6 | SKN-3 (head and neck, adherent) | 0.933 | > 10.2 | 0.981 | > 0.512 | 0.815 | 10.8 | 0.749 | 0.752 | 0.98 | > 0.1
7 | C-4-I (cervix, adherent) | 0.961 | > 10.2 | 0.886 | > 0.512 | 0.242 | 0.167 | 0.812 | 1.19 | 0.984 | > 0.1
8 | RKN (ovary, adherent) | 0.827 | 6.75 | 0.935 | > 0.512 | 0.733 | 4.83 | 0.905 | > 2 | 0.971 | > 0.1
9 | A427 (non-small cell lung carcinoma, adherent) | 0.92 | > 10.2 | 0.66 | 0.0896 | 0.332 | 0.338 | 0.896 | > 2 | 0.956 | > 0.1
10 | TOV-112D (ovary, adherent) | 0.899 | > 10.2 | 0.711 | 0.126 | 0.134 | 0.0693 | 0.926 | > 2 | 0.842 | 0.0706
11 | AU565 (breast, adherent) | 0.96 | > 10.2 | 0.951 | > 0.512 | 0.404 | 0.527 | 0.967 | > 2 | 0.971 | > 0.1
12 | HSC-4 (head and neck, adherent) | 0.963 | > 10.2 | 0.959 | > 0.512 | 0.393 | 0.462 | 0.562 | 0.195 | 0.847 | > 0.1
13 | Hep 3B2_1-7 (liver, adherent) | 0.819 | 5.84 | 0.947 | > 0.512 | 0.463 | 0.794 | 0.945 | > 2 | 0.985 | > 0.1
14 | KYSE-220 (oesophagus, adherent) | 0.9 | > 10.2 | 0.883 | > 0.512 | 0.451 | 0.729 | 0.808 | 1.11 | 0.973 | > 0.1
15 | HOS (osteosarcoma, adherent) | 0.992 | > 10.2 | 0.886 | 0.404 | 0.221 | 0.184 | 0.937 | > 2 | 0.991 | > 0.1
16 | Hs633T (fibrosarcoma, adherent) | 0.875 | 7.02 | 0.561 | 0.0455 | 0.233 | 0.202 | 0.844 | 1.07 | 0.99 | > 0.1
17 | SNU-C2B (large intestine, adherent) | 0.881 | > 10.2 | 0.98 | > 0.512 | 0.354 | 0.346 | 0.929 | > 2 | 0.978 | > 0.1
18 | A704 (kidney, adherent) | 0.901 | > 10.2 | 0.87 | 0.453 | 0.651 | 2.59 | 0.943 | > 2 | 0.986 | > 0.1
19 | SW13 (adrenal gland, adherent) | 0.988 | > 10.2 | 0.956 | > 0.512 | 0.404 | 0.544 | 0.764 |  | 0.986 | > 0.1
20 | HT-1376 (bladder, adherent) | 0.985 | > 10.2 | 0.925 | > 0.512 | 0.481 | 0.877 | 0.834 |  | 0.984 | > 0.1
21 | MDA-MB-361 (breast, adherent) | 0.94 | > 10.2 | 0.987 | > 0.512 | 0.462 | 0.79 | 0.93 | > 2 | 0.987 | > 0.1
22 | BICR78 (head and neck, adherent) | 0.979 | > 10.2 | 0.92 | > 0.512 | 0.572 | 1.62 | 0.581 | 0.216 | 0.981 | > 0.1
23 | CaR-1 (large intestine, adherent) | 0.923 | > 10.2 | 0.871 | > 0.512 | 0.42 | 0.541 | 0.91 | > 2 | 0.975 | > 0.1
24 | T84 (large intestine, adherent) | 0.936 | > 10.2 | 0.981 | > 0.512 | 0.249 | 0.187 | 0.989 | > 2 | 0.977 | > 0.1
25 | MHH-ES-1 (Ewing sarcoma, adherent) | 0.928 | > 10.2 | 0.796 | 0.237 | 0.087 | < 0.0625 | 0.834 | 1.28 | 0.984 | > 0.1
26 | CAL-78 (chondrosarcoma, adherent) | 0.961 | > 10.2 | 0.841 | 0.435 | 0.932 | > 16 | 0.986 | > 2 | 0.985 | > 0.1
